Here are results for 4 molecules from PMC3618364.

The target of assay [1] is Gal4BD-Smt3 (SUMO) (S. cerevisiae) [SUMO: Q12306]. Description: two-hybrid; Gal4AD and Gal4BD fusions (pGADT7, pGBKT7) in reporter strain PJ69-4A; His (10 mM 3AT) and Ade reporter phenotypes on plates.
Assay [2] deals with T1, Gal4BD-Slx5 (S. cerevisiae) (UniProt P32828).
T1 sequence: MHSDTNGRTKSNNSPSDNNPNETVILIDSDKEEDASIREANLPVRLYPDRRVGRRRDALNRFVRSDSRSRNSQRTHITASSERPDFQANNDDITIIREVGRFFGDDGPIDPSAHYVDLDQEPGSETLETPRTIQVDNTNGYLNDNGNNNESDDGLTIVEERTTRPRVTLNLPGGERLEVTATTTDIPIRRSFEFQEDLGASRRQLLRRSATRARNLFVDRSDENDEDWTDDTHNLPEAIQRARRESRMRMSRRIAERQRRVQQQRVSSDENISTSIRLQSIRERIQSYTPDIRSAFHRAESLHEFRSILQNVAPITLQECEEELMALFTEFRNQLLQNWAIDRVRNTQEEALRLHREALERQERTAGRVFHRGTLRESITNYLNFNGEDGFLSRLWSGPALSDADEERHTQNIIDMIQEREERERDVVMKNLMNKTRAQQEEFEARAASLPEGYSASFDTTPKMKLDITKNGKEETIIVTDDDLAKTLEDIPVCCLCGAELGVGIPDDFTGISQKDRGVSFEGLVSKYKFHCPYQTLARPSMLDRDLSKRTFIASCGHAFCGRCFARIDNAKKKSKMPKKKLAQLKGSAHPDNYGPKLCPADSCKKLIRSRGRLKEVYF
The description is as above.

The target of the next assay is HA-Uls1 (S. cerevisiae) (UniProt Q08562). Description: co-IP; extracts of strain ZY528 (genomic TAP-Slx5) with a plasmid for HA-Uls1; IgG beads (TAP-Slx5) or HA beads, 1.5 hr at 4°C, RNP buffer (20 mM HEPES pH 7.4, 100 mM NaCl, 0.1% NP-40); Western blot with anti-HA and anti-TAP. In general terms: In western blotting, separated proteins are transferred to a membrane and probed.

Results are given in words; binding and its absence hold for the method and conditions named. For some of these results: Binding seen in cells or lysates may run through a third protein. Some binding calls cover weakened binding; strength is not graded here.

B1: Gal4AD-Uls1(531-897) (domain or fragment, UniProt Q08562 531-897)
chain: ARGGRTISSTQQILVDEAENQLNKLKEKRQLTKSKLDSINLKMYNYNEQWKSFVHSKNINLQKSLAALERSARDSKASATVNKRNECLAEKEKLDQMLKEGTLSFSTYKQLTGEIQQKLNDLKLGDQRTTDINSVLPIVRQPLAKRDLFIKSIDTAKDLLAKNTSRTEMTKRILYRHLDNLVSYKNFFEDGRSLIDINRRHVAHESAQILFTNGVKMPIVFETLQDYGIKFSNPAIVNPDRRAQYFKSIEVARDLISKSTRSEDAKRKITRFLNIIEEFRKDIDTGFPPTPLKREGVGKAVVGLRQQGLKMDRLYENLRRYKIPITSEELLQQSYLFPVNADQRPPSNWNIVENTEDTSSTANDLSM
On to B1, for which the binding result is recorded as “no binding” in assay [1] and “binds” in assay [2].

B2: Gal4AD-Uls1(554-955) (domain or fragment, UniProt Q08562 554-955)
chain: KLKEKRQLTKSKLDSINLKMYNYNEQWKSFVHSKNINLQKSLAALERSARDSKASATVNKRNECLAEKEKLDQMLKEGTLSFSTYKQLTGEIQQKLNDLKLGDQRTTDINSVLPIVRQPLAKRDLFIKSIDTAKDLLAKNTSRTEMTKRILYRHLDNLVSYKNFFEDGRSLIDINRRHVAHESAQILFTNGVKMPIVFETLQDYGIKFSNPAIVNPDRRAQYFKSIEVARDLISKSTRSEDAKRKITRFLNIIEEFRKDIDTGFPPTPLKREGVGKAVVGLRQQGLKMDRLYENLRRYKIPITSEELLQQSYLFPVNADQRPPSNWNIVENTEDTSSTANDLSMQDEFHISNMHAAEDQEQIRALLENVKQSESIIDGEALTPEDMTVNLLKHQRLGLHWLL
For the molecule B2, the binding result in assay [1] is “no binding”; in assay [2], “binds”.

B3: Gal4AD-Uls1Δ531-897 (protein, UniProt Q08562)
chain: MAAVPTIDLTLADSDNEDIFHSFSSSTSVDKIDIRKENGKLRMAGLEVAQSNDDAARQAFHVFKTNISNNETFDTILSKSKTITDSTFNNEKSSNEVKQQQVLKEETMGSSNDEKKTQESSPSAEMIKLFYENDDVPLSDSFKQKEEGKRINQDEQVKENICGISSSYVSKDYDGVEDDFEPNTCQDSNLDFQEEKLNLNNKPSQQQFSDPETKDNSLKSENKDQIKGVTTTSYRDLPIESSAFQDSETQNNSKNTIPNIVNEKRTPALPSNLSSVESSLKNETAKVEGKTTVRLPGLQNNVALLEQEQSELFKHFSEQPVDISDFGRKIKRKHSGDFADNKILKRPILPSKNMDHTTHNSHDSEQKNSSIIILSDEDESGAGINDIESPLKVSEPNTADALRSSVPEVISLLDLPNIDLNNSVIKEASGSNSIPTSETDAQSSSSSVLQGTIMTEQATQSSQHECNSSLDTLKKNHQKLLKDLNSRESELRNALSCCKTNSEILRRKLSRREKEVSDAEKHWQLLLTSMQDEFHISNMHAAEDQEQIRALLENVKQSESIIDGEALTPEDMTVNLLKHQRLGLHWLLQVENSAKKGGLLADDMGLGKTIQAIALMLANRSEESKCKTNLIVAPVSVLRVWKGELETKVKKRAKFTTFIFGGSGNGKVKHWRDLARYDAVLVSYQTLANEFKKHWPKKLDGEQNQLPAVPHIQALNRLKTSNEYYSPFFCNDSTFYRILLDEGQNIKNKNTRASKACCTINGMYRWVLSGTPIQNSMDELYSLIRFLRIPPYHKEQRFKLDIGRFFQRNKQYQYDNEDRKNALRKVRVLLNAIMLRRSKADKIDGKPLLELPPKIVEVDESRLKGEELKFYTALESKNQALAKKLLNNSTRGSYSSVLTLLLRLRQACCHSELVVMGEKKAEGTKVANGKSFEDDWLRLYYKITHMSGEAQAQVITSMNSMTCFWCMEQLEPEAMSVLTGCGHLICDTCIEPFIEESSMLPQAKKTKGGAFAIPCKDCQRLTNEKDIVSHKLYDQVINQGFTEEDLHAEYLSEMEKQKIQQKNVYVPNFESLEPSTKIEQCIQVIQRVFDESATEKIIIFSQFTTFFEILEHFLKNKLNFPYLKYIGSMNAQRRSDVINEFYRDPEKRILLISMKAGNSGLTLTCANHVVIVDPFWNPYVEEQAQDRCYRISQTKKVQVHKLFIKDSVEDRISELQKRKKEMVDSAMDPGKIKEVNSLGRRELGFLFGLNAL
Regarding B3, the binding result is reported as “binds” in assay [1] and “no binding” in assay [2].

B4: TAP-Slx5 (protein, UniProt P32828 1-619)
chain: T1 sequence
Take B4: the binding result with HA-Uls1 (S. cerevisiae) was “binds”.
